# Measurements: article PMC4336329 (PLoS ONE, 2015)
# About 2,200 (0.71%) of roughly 310,000 compounds showed an effect of 50% or more. The effect is printed as a negative number. The list shows a part of the results.
# Molecular target: human ether-à-go-go-related gene (hERG) potassium channel (human, UniProt Q12809)
# Assay: primary screen, population patch clamp on CHO cells stably expressing hERG
# human ether-à-go-go-related gene (hERG) potassium channel, sequence (Q12809 whole entry, looked up): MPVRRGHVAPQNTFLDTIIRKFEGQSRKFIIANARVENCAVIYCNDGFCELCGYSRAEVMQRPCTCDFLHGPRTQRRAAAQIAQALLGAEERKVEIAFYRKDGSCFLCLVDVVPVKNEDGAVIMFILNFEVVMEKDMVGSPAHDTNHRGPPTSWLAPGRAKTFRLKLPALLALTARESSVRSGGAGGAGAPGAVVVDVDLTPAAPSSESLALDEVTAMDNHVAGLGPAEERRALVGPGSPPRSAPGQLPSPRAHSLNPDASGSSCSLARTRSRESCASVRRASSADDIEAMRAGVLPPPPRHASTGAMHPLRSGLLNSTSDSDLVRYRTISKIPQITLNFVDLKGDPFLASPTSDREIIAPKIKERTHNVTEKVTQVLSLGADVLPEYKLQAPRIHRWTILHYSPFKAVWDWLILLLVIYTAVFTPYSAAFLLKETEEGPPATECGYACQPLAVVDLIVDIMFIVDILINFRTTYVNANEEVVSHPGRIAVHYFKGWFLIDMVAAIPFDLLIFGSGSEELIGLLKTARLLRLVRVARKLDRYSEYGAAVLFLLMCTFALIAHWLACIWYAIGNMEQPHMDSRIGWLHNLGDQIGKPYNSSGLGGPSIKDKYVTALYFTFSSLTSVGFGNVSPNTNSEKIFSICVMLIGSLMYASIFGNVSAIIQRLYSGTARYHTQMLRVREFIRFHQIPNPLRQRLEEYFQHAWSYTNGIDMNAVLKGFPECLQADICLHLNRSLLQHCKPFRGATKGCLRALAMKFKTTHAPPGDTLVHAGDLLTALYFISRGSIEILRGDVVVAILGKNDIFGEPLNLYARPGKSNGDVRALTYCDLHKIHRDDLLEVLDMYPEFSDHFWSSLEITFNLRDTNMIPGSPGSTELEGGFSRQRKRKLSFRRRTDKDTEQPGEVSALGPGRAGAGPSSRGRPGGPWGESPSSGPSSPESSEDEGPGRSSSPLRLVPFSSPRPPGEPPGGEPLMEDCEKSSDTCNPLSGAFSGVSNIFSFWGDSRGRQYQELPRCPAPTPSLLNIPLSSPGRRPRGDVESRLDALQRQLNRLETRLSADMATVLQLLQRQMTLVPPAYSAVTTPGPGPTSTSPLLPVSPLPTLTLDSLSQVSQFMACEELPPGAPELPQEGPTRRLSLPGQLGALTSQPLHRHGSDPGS
row,Compound,"hERG current change (%, negative = inhibition) at 1uM"
1,O=C(O)CC1S/C(=N\N=C2CCCCCCC2)N(c2ccccc2)C1=O (centres unmarked),17.1%
2,COc1cc(-c2csc(N3CCOCC3)n2)cc(OC)c1OC,6.29%
3,CCOCCCNC(=O)CN1C(=O)C(CC)Oc2ccccc21 (centres unmarked),12.2%
4,CC(NCC(=O)Nc1cc(Cl)cc(Cl)c1)c1ccccc1.O=C(O)C(=O)O (centres unmarked),18%
5,COc1cccc(NC(=O)c2cc(-c3ccccn3)nc3ccccc23)c1,8.93%
6,CCOc1[nH]n(-c2ccc(Cl)cc2)c(=O)c1C=Nc1ccc(O)cc1,11.2%
7,COc1ccc(C(=O)COC(=O)CN2C(=O)NC(C)(C)C2=O)cc1OC,2.8%
8,c1csc(-c2nnc(Cc3cccc4ccccc34)o2)c1,15.6%
9,Nc1ccn([C@@H]2CS[C@H](CO)O2)c(=O)n1,11.2%
10,c1ccc(-c2noc(-c3ccncc3)n2)nc1,11%
11,Nc1ccc(CCc2nc3ccccc3o2)cc1,7.85%
12,Cc1ccc(C2=CCNCC2)cc1.Cl,14.5%
13,Cn1nc(C(=O)NCCOc2ccccc2)c2ccccc2c1=O,-0.5%
14,COc1ccc(C2C(C(C)=O)=C(O)C(=O)N2c2ccc(C)cc2)cc1 (centres unmarked),10.8%
15,CCOC(=O)CCc1c(C)c2ccc(OCc3ccc([N+](=O)[O-])cc3)cc2oc1=O,2.15%
16,O/N=C(/c1ccc(Cl)cc1)C1CC1c1ccccc1 (centres unmarked),12.9%
17,O=C(CN1CCN(c2ccccc2)CC1)NC(=O)NCc1ccccc1,21.5%
18,CC(C)(Cl)[N+](=O)[O-],13%
19,O=S(=O)(N1CCOCC1)N1CCN(c2ccccc2F)CC1,14.4%
20,CCOc1cc(NC(=S)NCCCN2CCOCC2)c(OCC)cc1NC(=O)c1cccc(C)c1,7.77%
21,COc1ccc(C2N(c3cc(Cl)ccc3OC)C(=O)C3CCCN32)cc1OC (centres unmarked),-1.27%
22,Cc1cc(C(=O)N/N=C/c2c[nH]c3ccccc23)c(C)o1,-12.5%
23,COc1ccccc1NS(=O)(=O)c1cccc(C(=O)N/N=C/c2ccc(NC(C)=O)cc2)c1,18%

row,Compound,"hERG current change (%, negative = inhibition) at 1uM"
1,COc1ccccc1N(CC(=O)N1CCc2ccccc2C1)S(C)(=O)=O,18.7%
2,Cc1ccc(-c2[nH]ncc2C(=O)c2ccccc2C)c(O)c1,8.59%
3,Cc1cc(=O)oc2cc(OCC(=O)OCC(=O)Nc3ccccc3Br)ccc12,9.45%
4,CCc1cccc(CC)c1NC(=O)CSc1nc2ccc(N3C(=O)C4C5C=CC(C5)C4C3=O)cc2s1 (centres unmarked),-3.72%
5,CN(C)C(=S)Nn1c(-c2ccccc2)nc2ccccc2c1=O,10.8%
6,Cc1cnc(C(=O)OCC(=O)Nc2ccc(Br)c(C)c2)cn1,10.4%
7,Cc1cc(C)cc(NC(=O)CCNS(=O)(=O)c2ccc3c(c2)oc(=O)n3C)c1,9.33%
8,Cc1ccc(C2CC(c3cccs3)n3nc(N)nc3N2)cc1 (centres unmarked),-0.924%
9,Cc1cc(S(=O)(=O)Nc2ccccc2C)ccc1F,1.74%
10,CCOc1ccc(C/C(O)=C2\C(=O)CC(C)(C)CC2=NCC(=O)O)cc1OCC,13.6%
11,O=C(Nc1cccc(F)c1)Nc1ccc2c(c1)C(=O)OC2,11.3%
12,O=C(C1CCC(=O)N(C2CC2)C1)N(CCO)Cc1ccccc1 (centres unmarked),13.2%
13,Cc1cccc(OCCSc2nncn2C)c1,13.7%
14,CN(Cc1nc(-c2ccc3c(c2)OCO3)no1)CC1(N2CCOCC2)CCCCC1,11.7%
15,C[N+]1=C(/C=C/Nc2ccccc2)C(C)(C)c2ccccc21.[O-][Cl+3]([O-])([O-])[O-],-62.8%
16,Cc1cc(O)c(NC(=S)NC(=O)c2ccc(-c3ccc(Cl)cc3)o2)cc1C,3.29%
17,CCc1ccc(NC(=O)CSc2nc3ccccc3c(=O)n2CCCC(=O)N2CCCC2)cc1,-16.9%
18,CC(=O)N1CCC(C(=O)Nc2ccc3c(c2)CCC3)CC1,-2.44%
19,Cc1cccc(C)c1NS(=O)(=O)c1ccc2c(c1)C(=O)c1ccccc1C2=O,-13.2%
20,Cc1ccc(CNC(=O)CS(=O)CC(=O)O)cc1 (centres unmarked),15.2%
21,CNS(=O)(=O)c1cc(N)ccc1C,2.22%
22,CC(C)CCNC(=O)c1c(CSc2ccc(Cl)cc2)noc1C(=O)NCc1ccccc1,13.1%
23,CN(Cc1ccc(F)cc1)Cc1nc(-c2ccccc2)no1,6.57%

row,Compound,"hERG current change (%, negative = inhibition) at 1uM"
1,Cc1cc(C)c(OCC(O)CNC(C)(C)C)c(C)c1.Cl (centres unmarked),9.45%
2,CCN1C(=O)c2cccc3c(S(=O)(=O)NCc4cccnc4)ccc1c23,5.94%
3,O=C(CN1CCC(O)(c2ccccc2)CC1)Nc1ccc2c(c1)OCCO2,24.8%
4,CCC(C)(C)n1nnnc1C(C(C)C)N(CCN1CCOCC1)Cc1cc2cccc(C)c2[nH]c1=O (centres unmarked),10.8%
5,O=C(CCn1c(=S)oc2ccccc21)Nc1ccc(F)cc1,6.71%
6,Cc1ccc(NC(=O)COC(=O)C(NS(=O)(=O)c2ccc(Cl)cc2)C(C)O)cc1C (centres unmarked),11.9%
7,COc1ccc(/C=C/C(=O)NCc2ccccn2)cc1OC,13.7%
8,Cc1cc(C(=O)NCCCN2CCN(C3CCCCC3)CC2)n(-c2ccccc2)n1,15.4%
9,O=C(CCNS(=O)(=O)c1ccc2c(c1)CCC(=O)N2)NCc1ccc2c(c1)OCO2,4.61%
10,CC(C)C(C)NC(=O)COn1nnc2ccc(S(=O)(=O)N3CCOCC3)cc21 (centres unmarked),20.7%
11,c1ccc(-c2csc(Cc3nnc4n3CCCCC4)n2)cc1,-1.14%
12,CCN(CC(=O)Nc1ccc2c(c1)OCCO2)C(=O)c1ccc(S(=O)(=O)N(C)C)cc1,15.3%
13,COc1ccc(N(C(=O)c2cccnc2)S(=O)(=O)c2cccc([N+](=O)[O-])c2)cc1,-2.12%
14,O=C1CCCC2=C1C(c1ccc(Cl)cc1)n1c(s/c(=C\c3ccc4ccncc4c3)c1=O)=N2 (centres unmarked),6.62%
15,O=C(O)c1ccc(-n2[nH]c3c(c2=O)CCCC3)cc1,0.711%
16,CCOC(=O)C1CCN(C(c2cccc(F)c2)c2sc3nc(C)nn3c2O)CC1 (centres unmarked),8.11%
17,Cc1cc(NC(=O)CSCC(=O)N(C)Cc2ccc(Cl)c(Cl)c2)no1,12.4%
18,CCOC(=O)C1=C(COc2ccccc2)NC(=O)NC1c1ccc2ccccc2c1 (centres unmarked),-7.86%
19,O=S(=O)(Cc1ccccc1)N1CCc2ccccc2C1,16.6%
20,Cc1ccc(NC(=O)OCc2cccs2)cc1,15.6%
21,S=C(Nc1ccc(Br)cc1Cl)N1CCCC1,14%
22,CN(CC(=O)NCCc1ccccc1)S(=O)(=O)c1cnc[nH]1,14.9%
23,Cc1ccc([N+](=O)[O-])c(NC2OC(CO)C(O)C2O)c1 (centres unmarked),18.2%

row,Compound,"hERG current change (%, negative = inhibition) at 1uM"
1,COC(=O)c1sccc1-c1ccc(C(=O)Nc2cccnc2)o1,12%
2,N/C(=N\OC(=O)c1ccc(Cl)cc1)c1ccccn1,-0.428%
3,Nc1ccc(-c2nc3cc(N)ccc3s2)cc1,9.03%
4,COC(=O)c1c(-c2ccc(F)cc2)csc1NC(=O)C1CCCO1 (centres unmarked),6.07%
5,Cc1sc2nc(SCC(=O)N3CC(C)OC(C)C3)n(C)c(=O)c2c1C (centres unmarked),6.02%
6,O=C(C1CCC(Cn2c(=S)[nH]c3ccccc3c2=O)CC1)N1CCOCC1 (centres unmarked),0.898%
7,N#C/C(=C\c1ccc(N2CCOCC2)o1)c1nc2ccccc2[nH]1,1.65%
8,O=C(CCc1nnc(CCCCc2ccccc2)o1)NCCN1CCCCC1=O,-2.88%
9,O=C(O)c1[nH]c2ccc(Br)cc2c1CCN1C(=O)c2cccc([N+](=O)[O-])c2C1=O,10.7%
10,Cc1ccc(N2C(=N)/C(=C3/Nc4ccccc4S3)C(c3ccccc3)C2=O)cc1 (centres unmarked),24.7%
11,O=C(CSCC(=O)Nc1cccc([N+](=O)[O-])c1)Nc1ccccc1,13.1%
12,CNc1nc2c(C)cccn2c(=O)c1C=NCc1ccccc1,20%
13,COc1ccc(N2CCOCC2)c(NC(=O)c2ccc3c(c2)OCO3)c1,12.4%
14,CC1(C)CC(=O)C2=C(C1)OC(N)=C(C#N)C2c1cc2c(cc1[N+](=O)[O-])OCO2 (centres unmarked),5.63%
15,CC1CCN(c2ccc3nnc(CCC(=O)Nc4cc(F)ccc4F)n3n2)CC1,3.13%
16,COc1cc2c(cc1OC)C(c1ccccc1)N(C(=O)c1ccccc1)CC2 (centres unmarked),11.4%
17,COc1ccc(OC)c(NC(=O)C(=O)NCc2ccncc2)c1,-8.5%
18,O=S(=O)(N1CCCCC1)N1CCN(c2ccc(F)cc2)CC1,-0.452%
19,COc1ccccc1CN1CCNC(=O)C1CC(=O)NCCOc1cccnc1 (centres unmarked),7.59%
20,Cc1nn(Cc2c(Cl)cccc2Cl)c(C)c1NC(=O)c1cn(-c2ccccc2)nc1-c1ccccc1,6.15%
